# Measurements as given in the supplement of paper PMC8728848.
# Some of the results follow.
# B1: MGL2 (Mus musculus), Q8JZN1 (protein)
# chain: MTMRYENFQNLEREEKNQEMRNGDKKGGMESPKFALIPSQSFLWRILSWTHLLLFSLGLSLLLLVVISVIGSQNSQLRRDLGTLRAILDNTTSKIKAEFQSLDSRADNFEKGISSLKVDVEDHRQELQAGRDLSQKVTSLESTLEKREQALKTDLSDLTDHVQQLETDLKALTCQLANLKNNGSEVACCPLHWTEHEGSCYWFSESEKSWPEADKYCRLENSHLVVVNSLEEQNFLQNRLANVLSWMGLTDQNGPWRWVDGTDFDKGFKNWRPLQPDNWHGHMLGGGEDCAHFSYDGRWNDDVCQRHYHWICETELGKASSAHSPQLIASVP
# Legend:
# Assay in all cases: glycan array binding signal (z-score within array); higher = stronger binding
# Details in all cases: glycan notation: IUPAC condensed, linker removed
# [1] = molecular target: Gal(b1-3)GlcNAc(b1-2)Man(a1-3)[Gal(b1-3)GlcNAc(b1-2)Man(a1-6)]Man(b1-4)GlcNAc(b1-4)GlcNAc
# Summary of the method: (§1)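 The Consortium for Functional Glycomics database supplied 3228 glycan arrays, of which those lacking an available protein sequence were dropped. The binding signal, a within-array Z-score, was averaged across arrays of the same protein sequence and across linkers. Negative scores can be read as non-binding.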
# [2] = molecular target: Gal(b1-3)GlcNAc(b1-2)Man(a1-3)[Gal(b1-3)GlcNAc(b1-2)Man(a1-6)]Man(b1-4)GlcNAc(b1-4)[Fuc(a1-6)]GlcNAc
# Summary of the method: as §1
# [3] = molecular target: Gal(b1-3)GlcNAc(b1-2)Man(a1-3)[GlcNAc(b1-4)][Gal(b1-3)GlcNAc(b1-2)Man(a1-6)]Man(b1-4)GlcNAc(b1-4)GlcNAc
# Summary of the method: as §1
# [4] = molecular target: Gal(b1-3)GlcNAc(b1-2)[Gal(b1-3)GlcNAc(b1-6)]Man(a1-6)[Gal(b1-3)GlcNAc(b1-2)Man(a1-3)]Man(b1-4)GlcNAc(b1-4)GlcNAc
# Summary of the method: as §1
# [5] = molecular target: Gal(b1-3)GlcNAc(b1-3)Gal(b1-3)GlcNAc
# Summary of the method: as §1
# [6] = molecular target: Gal(b1-3)GlcNAc(b1-3)Gal(b1-4)Glc
# Summary of the method: as §1
# [7] = molecular target: Gal(b1-3)GlcNAc(b1-3)Gal(b1-4)GlcNAc
# Summary of the method: as §1
# [8] = molecular target: Gal(b1-3)GlcNAc(b1-3)Gal(b1-4)GlcNAc(b1-2)Man(a1-3)[Gal(b1-3)GlcNAc(b1-3)Gal(b1-4)GlcNAc(b1-2)Man(a1-6)]Man(b1-4)GlcNAc(b1-4)GlcNAc
# Summary of the method: as §1
# [9] = molecular target: Gal(b1-3)GlcNAc(b1-3)Gal(b1-4)GlcNAc(b1-2)[Gal(b1-3)GlcNAc(b1-3)Gal(b1-4)GlcNAc(b1-6)]Man(a1-6)[Gal(b1-3)GlcNAc(b1-3)Gal(b1-4)GlcNAc(b1-2)Man(a1-3)]Man(b1-4)GlcNAc(b1-4)[Fuc(a1-6)]GlcNAc
# Summary of the method: as §1
# [10] = molecular target: Gal(b1-3)GlcNAc(b1-3)Gal(b1-4)GlcNAc(b1-3)Gal(b1-4)GlcNAc(b1-2)[Gal(b1-3)GlcNAc(b1-3)Gal(b1-4)GlcNAc(b1-3)Gal(b1-4)GlcNAc(b1-6)]Man(a1-6)[Gal(b1-3)GlcNAc(b1-3)Gal(b1-4)GlcNAc(b1-3)Gal(b1-4)GlcNAc(b1-2)Man(a1-3)]Man(b1-4)GlcNAc(b1-4)[Fuc(a1-6)]GlcNAc
# Summary of the method: as §1
# [11] = molecular target: Gal(b1-3)GlcNAc(b1-3)Gal(b1-4)GlcNAc(b1-6)[Gal(b1-3)GlcNAc(b1-3)]Gal(b1-4)Glc
# Summary of the method: as §1
# [12] = molecular target: Gal(b1-3)GlcNAc(b1-3)Gal(b1-4)[Fuc(a1-3)]GlcNAc
# Summary of the method: as §1
# [13] = molecular target: Gal(b1-3)GlcNAc(b1-3)Gal(b1-4)[Fuc(a1-3)]GlcNAc(b1-6)[Gal(b1-3)GlcNAc(b1-3)]Gal(b1-4)Glc
# Summary of the method: as §1
# [14] = molecular target: Gal(b1-3)GlcNAc(b1-3)GalNAc
# Summary of the method: as §1
# [15] = molecular target: Gal(b1-3)GlcNAc(b1-6)Gal(b1-4)GlcNAc
# Summary of the method: as §1
# [16] = molecular target: Gal(b1-3)GlcNAc(b1-6)GalNAc
# Summary of the method: as §1
# [17] = molecular target: Gal(b1-3)GlcNAc(b1-6)[Gal(b1-3)]GalNAc
# Summary of the method: as §1
# [18] = molecular target: Gal(b1-3)GlcNAc6S
# Summary of the method: as §1
# [19] = molecular target: Gal(b1-3)[Fuc(a1-4)]GlcNAc
# Summary of the method: as §1
# [20] = molecular target: Gal(b1-3)[Fuc(a1-4)]GlcNAc(b1-2)Man
# Summary of the method: as §1
# [21] = molecular target: Gal(b1-3)[Fuc(a1-4)]GlcNAc(b1-2)Man(a1-3)[Gal(b1-3)[Fuc(a1-4)]GlcNAc(b1-2)Man(a1-6)]Man(b1-4)GlcNAc(b1-4)[Fuc(a1-6)]GlcNAc
# Summary of the method: as §1
# [22] = molecular target: Gal(b1-3)[Fuc(a1-4)]GlcNAc(b1-3)Gal(b1-3)[Fuc(a1-4)]GlcNAc
# Summary of the method: as §1
# [23] = molecular target: Gal(b1-3)[Fuc(a1-4)]GlcNAc(b1-3)Gal(b1-4)[Fuc(a1-3)]GlcNAc
# Summary of the method: as §1
# [24] = molecular target: Gal(b1-3)[Fuc(a1-4)]GlcNAc(b1-6)GalNAc
# Summary of the method: as §1
# [25] = molecular target: Gal(b1-3)[GlcNAc(b1-6)]GalNAc
# Summary of the method: as §1
# [26] = molecular target: Gal(b1-3)[Neu5Ac(a2-6)]GalNAc
# Summary of the method: as §1
# [27] = molecular target: Gal(b1-3)[Neu5Ac(a2-6)]GlcNAc(b1-4)Gal(b1-4)Glc
# Summary of the method: as §1
# [28] = molecular target: Gal(b1-3)[Neu5Ac(b2-6)]GalNAc
# Summary of the method: as §1
# [29] = molecular target: Gal(b1-4)Gal
# Summary of the method: as §1
# [30] = molecular target: Gal(b1-4)GalNAc(a1-3)[Fuc(a1-2)]Gal(b1-4)GlcNAc
# Summary of the method: as §1
# [31] = molecular target: Gal(b1-4)GalNAc(b1-3)[Fuc(a1-2)]Gal(b1-4)GlcNAc
# Summary of the method: as §1
# [32] = molecular target: Gal(b1-4)Glc
# Summary of the method: as §1
# [33] = molecular target: Gal(b1-4)Glc6S
# Summary of the method: as §1
# [34] = molecular target: Gal(b1-4)GlcNAc
# Summary of the method: as §1
# [35] = molecular target: Gal(b1-4)GlcNAc(a1-6)Gal(b1-4)GlcNAc
# Summary of the method: as §1
# [36] = molecular target: Gal(b1-4)GlcNAc(b1-2)Man
# Summary of the method: as §1
# [37] = molecular target: Gal(b1-4)GlcNAc(b1-2)Man(a1-3)Man(b1-4)GlcNAc(b1-4)GlcNAc
# Summary of the method: as §1
binder,measurement,setting,value
B1,glycan array binding signal (z-score),[1],-0.128
same,glycan array binding signal (z-score),[2],-0.125
same,glycan array binding signal (z-score),[3],0.562
same,glycan array binding signal (z-score),[4],-0.066
same,glycan array binding signal (z-score),[5],-0.173
same,glycan array binding signal (z-score),[6],-0.207
same,glycan array binding signal (z-score),[7],-0.154
same,glycan array binding signal (z-score),[8],-0.097
same,glycan array binding signal (z-score),[9],-0.159
same,glycan array binding signal (z-score),[10],-0.035
same,glycan array binding signal (z-score),[11],-0.184
same,glycan array binding signal (z-score),[12],-0.213
same,glycan array binding signal (z-score),[13],-0.138
same,glycan array binding signal (z-score),[14],-0.286
same,glycan array binding signal (z-score),[15],-0.035
same,glycan array binding signal (z-score),[16],2.02
same,glycan array binding signal (z-score),[17],-0.049
same,glycan array binding signal (z-score),[18],-0.194
same,glycan array binding signal (z-score),[19],-0.136
same,glycan array binding signal (z-score),[20],-0.142
same,glycan array binding signal (z-score),[21],-0.223
same,glycan array binding signal (z-score),[22],-0.257
same,glycan array binding signal (z-score),[23],-0.068
same,glycan array binding signal (z-score),[24],-0.154
same,glycan array binding signal (z-score),[25],-0.061
same,glycan array binding signal (z-score),[26],-0.212
same,glycan array binding signal (z-score),[27],-0.266
same,glycan array binding signal (z-score),[28],-0.205
same,glycan array binding signal (z-score),[29],-0.267
same,glycan array binding signal (z-score),[30],-0.177
same,glycan array binding signal (z-score),[31],-0.236
same,glycan array binding signal (z-score),[32],-0.184
same,glycan array binding signal (z-score),[33],-0.225
same,glycan array binding signal (z-score),[34],-0.209
same,glycan array binding signal (z-score),[35],-0.091
same,glycan array binding signal (z-score),[36],-0.317
same,glycan array binding signal (z-score),[37],-0.195
